± gives the standard deviation of the averaged measurements. The full ranking holds about 33,000 sequences; the median of “E-score (dimensionless, -0.5 to 0.5)” is about -0.049, and the highest 2% start at about 0.37. The list shows a part of the results.
Each sequence was assayed on T1, PmTbr T-box DNA-binding domain (GST fusion) (assay: PBM E-score of 8-mer (E-score (dimensionless, -0.5 to 0.5)); Tbr is Tbrain of the sea star Patiria miniata (Pm) or the sea urchin Strongylocentrotus purpuratus (Sp); higher = stronger binding preference; most listed sequences are background and not binding sites). Settings: the construct has about 5 more residues each side.
T1 sequence: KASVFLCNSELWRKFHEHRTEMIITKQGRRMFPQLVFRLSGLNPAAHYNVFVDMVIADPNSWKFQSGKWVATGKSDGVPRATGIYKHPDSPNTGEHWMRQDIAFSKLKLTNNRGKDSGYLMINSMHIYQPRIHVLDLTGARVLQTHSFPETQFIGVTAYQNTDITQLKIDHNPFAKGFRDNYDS
Experimental: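 Universal protein-binding microarray (Agilent AMADID 016060, 60-bp probes with a 35-bp variable region) incubated with 200 nM GST-fused Patiria miniata Tbr T-box DNA-binding domain (residues 272-466) in PBS pH 7.5. Scored for every ungapped 8-mer (given with its reverse complement) by the Universal PBM Analysis Suite as E-score (modified Wilcoxon-Mann-Whitney enrichment, range -0.5 to 0.5; >0.45 counts as bound) and Z-score of median probe intensity. Two replicate arrays (datasets 1 and 2).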
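Also: 200 nM protein in PBS on universal arrays averaged over duplicate arrays.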

Sequence	PBM E-score of 8-mer
CCCTAAAG	-0.169 ± 0.037
CTGAGCTC	-0.201 ± 0.043
AAGCAAGG	-0.0157 ± 0.0054
TACCAGGA	-0.199 ± 0.05
AACCTCAG	-0.26 ± 0.042
TAAAGTCA	-0.194 ± 0.077
ATGTAGCA	-0.0339 ± 0.056
ACTATATG	-0.164 ± 0.081
TTAGTGAA	-0.048 ± 0.037
AGAATCGG	-0.0675 ± 0.025
CAAGGCCC	-0.0733 ± 0.026
CAAAAGAC	-0.165 ± 0.02
GATGCCCA	-0.0504 ± 0.039
GAGGATGC	-0.142 ± 0.061
TATTGCAA	-0.0938 ± 0.15
CGCAAAAG	0.106 ± 0.096
CGTACCTA	-0.0536 ± 0.039
CGACTCAC	0.154 ± 0.051
CATATCCC	-0.0739 ± 0.056
GGAAGCAC	-0.23 ± 0.015
AGGGGAAT	0.0115 ± 0.057
CTAGAGAA	-0.3014 ± 0.0017
CTTAGAGA	-0.0721 ± 0.056
CCCCTTCC	-0.0801 ± 0.025
ACTAAAGG	0.0782 ± 0.01

Sequence	PBM E-score of 8-mer
ATTCACAA	0.247 ± 0.024
GAATGGGC	-0.0404 ± 0.062
CGCACGCG	0.248 ± 0.036
CAGAGCAC	-0.209 ± 0.13
GATCTGGC	0.0179 ± 0.036
GGGGGCAC	-0.0925 ± 0.045
ATCGGTGG	-0.0425 ± 0.03
ATCCGATG	-0.0392 ± 0.042
AGGGCCCA	-0.193 ± 0.015
ACCCATCA	-0.0248 ± 0.064
AACTGGCT	-0.182 ± 0.078
AGAGCGGG	-0.151 ± 0.039
CGAAGGCC	-0.105 ± 0.055
AAAAGGCG	0.197 ± 0.037
GATAAGGC	0.105 ± 0.069
AATAAATC	-0.167 ± 0.018
CCTAATCC	-0.128 ± 0.044
GAGTTGAA	0.0188 ± 0.085
CATACGAA	-0.0882 ± 0.045
CTTCCCGC	-0.0401 ± 0.07
GTCCCCTA	-0.175 ± 0.076
AGTGAACT	-0.118 ± 0.056
CAATGTAA	0.025 ± 0.093
AATAGAGT	-0.0113 ± 0.0051
CAAGTGAG	0.254 ± 0.037

Sequence	PBM E-score of 8-mer
TAAAACGA	-0.0147 ± 0.047
ATGTACCC	0.0216 ± 0.0037
ACAACCAG	0.0895 ± 0.034
AGCAGGGA	0.00886 ± 0.045
AAAACCGA	-0.0105 ± 0.042
TCATGACA	0.242 ± 0.045
CCTGAAGA	-0.202 ± 0.023
GAACGACC	-0.0639 ± 0.034
ATTAATCA	-0.144 ± 0.16
TCCCGTCA	0.105 ± 0.073
AATCGAGG	0.0132 ± 0.066
AATGTCTG	-0.0348 ± 0.02
CGCGATGA	0.169 ± 0.0058
CTCCACAG	-0.059 ± 0.095
CAGCAGAA	-0.176 ± 0.013
GCGTCGAA	0.103 ± 0.051
CCTGCGAA	0.367 ± 0.025
CCCATCCC	-0.164 ± 0.083
CTAACTAG	0.0684 ± 0.0073
ATGGCAAA	-0.166 ± 0.041
AACATGAG	-0.0864 ± 0.051
CTACACGA	-0.194 ± 0.0027
AAACATCC	-0.101 ± 0.042
AGAAGAAC	-0.282 ± 0.01
CGCATGAA	-0.167 ± 0.025

Sequence	PBM E-score of 8-mer
AATGTATC	-0.0495 ± 0.0079
AGGCACAT	-0.0671 ± 0.041
CACACACA	0.303 ± 0.0096
ATGTAGCG	-0.0122 ± 0.0024
AGGCAGTG	-0.295 ± 0.059
ACCTCTCG	0.194 ± 0.073
ATAGAGGA	-0.147 ± 0.013
ACCGGCCA	-0.0982 ± 0.0037
GAGATCCC	-0.0869 ± 0.09
AGGCCGCC	-0.223 ± 0.025
GAGATAAA	-0.06 ± 0.035
ACCTCAGA	0.122 ± 0.0097
AATGGATC	-0.166 ± 0.035
TGTGGTAA	0.16 ± 0.035
AGTCACAT	0.11 ± 0.058
CGTTAAGA	0.0228 ± 0.045
CTCACAAC	0.3462 ± 0.0029
TAATCGGA	0.0209 ± 0.11
ATCCTCGA	0.0553 ± 0.0014
AACCGGAC	-0.118 ± 0.08
CGCGAGAG	0.258 ± 0.036
ACGGAAAA	-0.112 ± 0.028
ATGGTCAC	0.0334 ± 0.1
ATCCCAGA	-0.036 ± 0.029
CCACAGAG	-0.192 ± 0.025

Sequence	PBM E-score of 8-mer
TCTATGAA	-0.102 ± 0.0055
CCAAAACA	0.0379 ± 0.018
GGCTGCAA	-0.0812 ± 0.091
ACCTGCCA	0.2808 ± 0.0012
TGCTTCAA	-0.187 ± 0.019
ACATTCCA	-0.101 ± 0.0052
CAATTTCG	0.107 ± 0.044
ACTAATCA	0.125 ± 0.017
AATGGAAG	-0.042 ± 0.054
CTGCCGAA	-0.0973 ± 0.023
ACTGGCGA	0.183 ± 0.042
ACGACATC	-0.0462 ± 0.028
CACTACCC	0.114 ± 0.015
ACACCGAG	0.214 ± 0.045
CCTGGAAG	-0.0146 ± 0.009
CAGGATCG	0.104 ± 0.086
CCCGGAAA	-0.188 ± 0.0093
ACTAGCGC	0.191 ± 0.034
AAAGAGAG	0.0214 ± 0.073
CATAAGGA	-0.154 ± 0.021
AGTCATCC	-0.273 ± 0.052
GCGCGTAC	0.157 ± 0.046
CAGCCCGG	-0.112 ± 0.0029
CTCCGACA	0.2833 ± 0.00057
ACTCTTGG	-0.021 ± 0.043

Sequence	PBM E-score of 8-mer
CCCATCGG	-0.195 ± 0.024
AGGCTCTA	-0.144 ± 0.061
ATCGCTCC	-0.0423 ± 0.0074
TCAAGAGA	-0.172 ± 0.012
TCATATCA	0.0153 ± 0.0093
CCATCCAC	0.00695 ± 0.069
CCGCAACG	-0.264 ± 0.075
ATTATCAA	-0.0417 ± 0.055
AACTGATC	-0.2 ± 0.0057
ATAGGGTG	0.231 ± 0.035
GTTGGATA	0.108 ± 0.047
ACTATGAC	0.0904 ± 0.059
ATTTGTCG	0.262 ± 0.027
ACGAACTG	0.0451 ± 0.03
AAATTACG	-0.0256 ± 0.05
AGGGATGC	-0.183 ± 0.046
ACGTAAGT	0.0948 ± 0.03
AAGCCTTG	-0.0225 ± 0.02
CCGGAGCC	-0.112 ± 0.18
GCCTGGCC	-0.0923 ± 0.038
ATACGATA	0.0398 ± 0.072
ACCTTGAA	0.0851 ± 0.016
CCTATCCA	-0.209 ± 0.054
GACTATGC	-0.0692 ± 0.011
TCACATCA	0.255 ± 0.009

Sequence	PBM E-score of 8-mer
CCTCATGA	-0.144 ± 0.08
ACCTAGTC	0.119 ± 0.0012
AGGGCTAT	-0.246 ± 0.0093
TACACGAA	-0.0991 ± 0.0076
ATCCGTTG	-0.0623 ± 0.061
GACCACCC	-0.06321 ± 0.00032
ATGGATGA	-0.197 ± 0.058
CAAGAGGG	-0.126 ± 0.0039
TACGGGAA	-0.23 ± 0.017
AGGAGTTA	-0.127 ± 0.016
CGGGAGAA	-0.134 ± 0.018
AACGTATG	-0.179 ± 0.018
ACCACCCG	0.189 ± 0.017
GAGGACAA	-0.0269 ± 0.021
CCCCGCGA	0.1754 ± 0.0015
CCCTGACA	0.244 ± 0.048
ATAGCCCA	-0.0833 ± 0.05
TACAACGA	-0.18 ± 0.034
CAATTTGA	-0.128 ± 0.16
CGGAGGTC	-0.141 ± 0.044
CGAAACCC	-0.0661 ± 0.019
ACACGCTG	0.153 ± 0.0079

Reference: the supplement of paper PMC4166925
